We go through 27 molecules from the antibiotic and cytotoxicity screens of Wong et al. (2023).

This is one part of the list.

The test system of one test is HSkMC. The experiment in a line: cytotoxicity call (relative viability < 0.9). As to conditions: 10 µM.
For the next test, the system named is HepG2. The experiment in a line: cytotoxicity call (relative viability < 0.9). Particulars: 10 µM.
A further test has as its system S. aureus RN4220. The experiment in a line: growth inhibition call (relative growth <= 0.2). Particulars: 50 µM.

With `CC(C)NC(=O)N(C)C[C@@H]1Oc2ccc(NS(=O)(=O)c3ccccc3)cc2C(=O)N([C@@H](C)CO)C[C@H]1C`, the cytotoxicity call in the test with HSkMC and in the test on HepG2 was “inactive” in each case. In the test with S. aureus RN4220, the growth inhibition call was “inactive”.
Regarding `CCC1OC(=O)C(C)C(OC2CC(C)(OC)C(O)C(C)O2)C(C)C(OC2OC(C)CC(N(C)C)C2O)C(C)(O)CC(C)C(=O)C(C)C(O)C1(C)O.CCCCCCCCCCCCCCCCCC(=O)O` (stereo unspecified), the cytotoxicity call in the test on HSkMC and in the test on HepG2 was “inactive” each time. In addition, the growth inhibition call in the test on S. aureus RN4220 is “inactive”.
Regarding `COc1ccc(C2C(=O)c3ccccc3C2=O)cc1`, the cytotoxicity call in the test on HSkMC and with HepG2 was “inactive” each time. In the test with S. aureus RN4220, the growth inhibition call was “inactive”.
For the molecule `CC(=O)N1[C@H](CO)[C@H](c2ccccc2)[C@H]1CNC(=O)CN1CCOCC1`, the cytotoxicity call in the test with HSkMC and in the test on HepG2 was “inactive” throughout. For the same molecule, the growth inhibition call with S. aureus RN4220 is “inactive”.
Consider `CC(C)CC#Cc1ccc2c(c1)O[C@H](CN(C)C(=O)C1CCOCC1)[C@H](C)CN([C@H](C)CO)S2(=O)=O`, for which the cytotoxicity call with HSkMC and with HepG2 was “inactive” throughout. The growth inhibition call in the test on S. aureus RN4220 was “inactive”.
As to `C[C@@H]1CN([C@H](C)CO)C(=O)c2c(c3ccccc3n2C)-c2ccccc2CO[C@@H]1CN(C)Cc1ccccc1`, the cytotoxicity call in the test on HSkMC is “inactive”. Also, the cytotoxicity call in the test on HepG2 was “active”. Besides, the growth inhibition call with S. aureus RN4220 is “inactive”.
In the case of `O=C(C[C@H]1C[C@H]2c3cc(NC(=O)NC4CCCC4)ccc3O[C@H]2[C@H](CO)O1)NCCN1CCCCC1`, the cytotoxicity call in the test with HSkMC and in the test with HepG2 was “inactive” in each case. Moreover, the growth inhibition call in the test with S. aureus RN4220 was “inactive”.
For `C[C@@H]1CN([C@H](C)CO)C(=O)CCCn2nncc2CO[C@@H]1CN(C)S(=O)(=O)c1ccc2ccccc2c1`, the cytotoxicity call in the test with HSkMC and with HepG2 was “inactive” each time. Further, in the test on S. aureus RN4220, the growth inhibition call is “inactive”.
As for `C[C@@H]1CCCCO[C@H](CN(C)C(=O)Nc2cccc3ccccc23)[C@H](C)CN([C@@H](C)CO)C(=O)c2cc(NC(=O)Nc3ccccc3)ccc2O1`, the cytotoxicity call with HSkMC and with HepG2 was “inactive” throughout. Also, the growth inhibition call with S. aureus RN4220 is “inactive”.
For `C[C@@H]1CN([C@H](C)CO)C(=O)c2cccc(NC(=O)C3CCCCC3)c2O[C@H]1CN(C)C(=O)Nc1cccc2ccccc12`, the cytotoxicity call with HSkMC and in the test on HepG2 was “inactive” throughout. In the test on S. aureus RN4220, the growth inhibition call was “inactive”.
Regarding `c1nc2c(c(N3CCOCC3)n1)CCNCC2`, the cytotoxicity call with HSkMC and in the test with HepG2 was “inactive” each time. In the test on S. aureus RN4220, the growth inhibition call was “inactive”.
For `Cc1ccccc1/C=C(\C#N)c1nc(-c2ccccc2)cs1`, the cytotoxicity call with HSkMC is “inactive”. For the same molecule, the cytotoxicity call with HepG2 was “active”. For the same molecule, the growth inhibition call in the test on S. aureus RN4220 is “inactive”.
As for `COc1ccc(CN(C)C[C@@H]2OCCCC[C@H](C)Oc3ccc(NS(=O)(=O)c4ccc(OC)cc4)cc3C(=O)N([C@@H](C)CO)C[C@H]2C)cc1`, the cytotoxicity call with HSkMC and in the test on HepG2 was “inactive” in each case. The growth inhibition call with S. aureus RN4220 is “inactive”.
Take `COc1ccc(S(=O)(=O)Nc2ccc3c(c2)CC(=O)N([C@@H](C)CO)C[C@H](C)[C@H](CN(C)Cc2ccc(Cl)c(Cl)c2)O3)cc1`: the cytotoxicity call in the test with HSkMC and in the test with HepG2 was “active” each time. The growth inhibition call in the test with S. aureus RN4220 is “inactive”.
In the case of `C[C@@H]1CCCCO[C@@H](CN(C)Cc2ccc3c(c2)OCO3)[C@@H](C)CN([C@H](C)CO)C(=O)c2cc(NS(=O)(=O)c3ccc(F)cc3)ccc2O1`, the cytotoxicity call in the test on HSkMC is “inactive”. The cytotoxicity call with HepG2 is “active”. Also, the growth inhibition call in the test on S. aureus RN4220 was “inactive”.
For the molecule `Cc1ccccc1S(=O)(=O)N1C[C@@H](O)COC[C@H]2O[C@H](CC(=O)NCCc3ccccc3)CC[C@@H]21`, the cytotoxicity call with HSkMC and with HepG2 was “inactive” each time. Further, in the test with S. aureus RN4220, the growth inhibition call is “inactive”.
Consider `CCCCc1ccc(S(=O)(=O)Nc2nccnc2-c2ccc(COc3cc(CC)nc4ccccc34)cc2)cc1`, for which the cytotoxicity call in the test with HSkMC and with HepG2 was “inactive” in each case. Also, the growth inhibition call with S. aureus RN4220 is “inactive”.
For `CCCNC(=O)Nc1ccc2c(c1)C(=O)N(C)C[C@H](OC)[C@H](C)CN(C(=O)C1CCOCC1)[C@@H](C)CO2`, the cytotoxicity call in the test on HSkMC and with HepG2 was “inactive” each time. Further, the growth inhibition call with S. aureus RN4220 is “inactive”.
In the case of `C[C@@H]1CCCCO[C@H](CN(C)C(=O)Cc2ccccc2)[C@@H](C)CN([C@H](C)CO)C(=O)c2cc(NC(=O)Nc3ccc(C(F)(F)F)cc3)ccc2O1`, the cytotoxicity call in the test on HSkMC and with HepG2 was “inactive” each time. In the test on S. aureus RN4220, the growth inhibition call is “inactive”.
As for `C[C@@H]1CN([C@H](C)CO)C(=O)c2cc(NC(=O)Nc3ccc(F)cc3)ccc2O[C@@H](C)CCCCO[C@H]1CN(C)Cc1ccc(Cl)c(Cl)c1`, the cytotoxicity call in the test on HSkMC and in the test on HepG2 was “active” each time. Also, the growth inhibition call in the test on S. aureus RN4220 is “inactive”.
Regarding `CCc1cnc2c(c1OC)c(=O)n(CCN1CCOCC1)c(=O)n2C`, the cytotoxicity call in the test on HSkMC and in the test with HepG2 was “inactive” each time. Also, the growth inhibition call with S. aureus RN4220 is “inactive”.
Consider `C[C@@H]1CCCCO[C@@H](CN(C)Cc2ccncc2)[C@@H](C)CN([C@H](C)CO)C(=O)c2cc(NC(=O)CCCCCC(=O)Nc3ccccc3N)ccc2O1`, for which the cytotoxicity call in the test on HSkMC (human skeletal muscle cells) and with HepG2 was “inactive” in each case. Further, the growth inhibition call with S. aureus RN4220 is “inactive”.
In the case of `COc1ccccc1CN(C)C[C@H]1OCc2ccccc2-c2c(n(C)c3ccccc23)C(=O)N([C@@H](C)CO)C[C@H]1C`, the cytotoxicity call in the test with HSkMC and in the test with HepG2 was “inactive” each time. In addition, the growth inhibition call with S. aureus RN4220 was “inactive”.
As for `C[C@@H]1CCCCO[C@H](CN(C)Cc2ccc(C(F)(F)F)cc2)[C@@H](C)CN([C@@H](C)CO)C(=O)c2cc(N(C)C)ccc2O1`, the cytotoxicity call in the test with HSkMC and in the test on HepG2 was “inactive” each time. In addition, in the test with S. aureus RN4220, the growth inhibition call was “inactive”.
As for `C[C@H]1CN([C@@H](C)CO)S(=O)(=O)c2ccc(C#Cc3ccccc3)cc2O[C@H]1CN(C)C(=O)CN(C)C`, the cytotoxicity call in the test with HSkMC is “inactive”. For the same molecule, in the test on HepG2, the cytotoxicity call was “active”. Also, in the test with S. aureus RN4220, the growth inhibition call was “active”.
`COC(=O)OC[C@H]1O[C@@H](Oc2cc(C)cc(O)c2C(=O)CCc2ccc3occc3c2)[C@H](O)[C@@H](O)[C@@H]1O`: the cytotoxicity call with HSkMC and with HepG2 was “inactive” each time. Besides, the growth inhibition call in the test with S. aureus RN4220 is “inactive”.
`O=C1N[C@H]2[C@@H]1[C@@H]1C=C[C@H]2C1`: the cytotoxicity call with HSkMC and in the test with HepG2 was “inactive” each time. Moreover, the growth inhibition call in the test on S. aureus RN4220 is “inactive”.
